Experimental findings from paper PMC12136788 are described below.

The other results are listed elsewhere or left out.

B1: chr17:3572670:3572671:+_ENSG00000127774_ENST00000248378|hu_hu|FALSE|FALSE (ssRNA)
RNA: GGGAGUUCUACAGUCCGACGAUCGUAGGUGAAGAGGCCCCCGAUGAGGCCUCCUGUAAAGAGAGGUCUCCGUGAUUUGAAAUAUUUGUUCCACCUCCUUCCCGCCUUGAGAAUGAGGAGCAGGGAGAGCAGGACGGAGGCGAGCAACAGAGGAUUGAGCAUCA
B2: chr6:83912051:83912052:+_ENSMUSG00000030016_ENSMUST00000032088|mus_hu|FALSE|FALSE (ssRNA)
RNA: GGGAGUUCUACAGUCCGACGAUCUGCCUUUUUAUGAGAUGAUAAAAUCAAGAUAUCCUUUAAACCACCAAAUGGUUUUGCUAAGUCAUAAACUUCUUCUACAGAAUAUCCUUUAUUAGGCAAAUUAGAGACAAGCAUCACACACAACAGAGGAUUGAGCAUCA
B3: chr2:217001844:217001845:+_ENSG00000079246_ENST00000392132|hu_hu|hu_hu_hu_mus_False|1_108 (ssRNA)
RNA: GGGAGUUCUACAGUCCGACGAUCACCGACUUGAGGAUUAGAUCUUUUGUCAUAAGCAUAUCGGACGAUGGCGACCAUGUUUAACUCAUCCAAAGCAUGAACGAGAGAGGAAAGGGCAACAGCUGCCGCCUCAUCAUCUCUUGCCAACAGAGGAUUGAGCAUCA
B4: chr3:100845581:100845582:-_ENSMUSG00000027864_ENSMUST00000102694|mus_mus|FALSE|FALSE (ssRNA)
RNA: GGGAGUUCUACAGUCCGACGAUCGCUUGUGUGGGGUGCAUCUGCUACUGACUCUAAACCUGGACCCCACCUGGGCUAGAGCUACCUUCUCAAAAUCUCAUUACACGAGCAGCCCCCAAGGUGGGCUCAAAACAAGCAGAGGAACAACAGAGGAUUGAGCAUCA
B5: chr11:106642794:106642795:-_ENSMUSG00000020719_ENSMUST00000021062|mus_mus|motif|central (ssRNA)
RNA: GGGAGUUCUACAGUCCGACGAUCACUUUCCUUGUGUAAAAAUAAACACCAAAACAAAAAUCCCCCCCAAAAACACGGUCGGAGCCAAGUUGUACAUGACAUUAUAUAUGUAAAAUAAAGUACAAUUUCACUUAAUUCAGUCUUCAACAGAGGAUUGAGCAUCA
B6: chr5:135510151:135510152:+_ENSG00000113658_ENST00000545279|hu_hu|FALSE|FALSE (ssRNA)
RNA: GGGAGUUCUACAGUCCGACGAUCGAGGCUGCAGCUGCUGGGAAUCUUACAGACAGUGGUGGGAUGAAAGCCAUGAUGAAAGUUGCAGUUCCUACUCUGUACAAAUAUGCUGCUGUCACUGAGGCAUUCCGCAUACACCUCUCCCAACAGAGGAUUGAGCAUCA
B7: chr2:241070358:241070359:-_ENSG00000172428_ENST00000607357|hu_mus|FALSE|FALSE (ssRNA)
RNA: GGGAGUUCUACAGUCCGACGAUCCAGAGACAUCAGUACCCAGUUGGUUCAGACAGUUCCUCUAUUGGUUGACAAGGUCUUCAUUUCUAGUGAUAUCAACACGGUGUCUACAAUCAGCUGGUCGUGUCCCGAGAGACUCCAGACCAACAGAGGAUUGAGCAUCA
B8: chr4:25749455:25749456:-_ENSG00000091490_ENST00000264868|hu_hu|hu_hu_hu_mus_False|18_38 (ssRNA)
RNA: GGGAGUUCUACAGUCCGACGAUCGCACUAUGACCUCUAGAAAAAUCCACAGGGGGAAAAAAUGUAAACCAAUGUACAAUGUUAUCGCCUUCCCUGUAUUUCCAGGCUUUGUCUCAAUAUUUCAAGGAGCUGCUGGAUUUGGGACAACAGAGGAUUGAGCAUCA
B9: 109257482_109257602_1019_CDS_ENSMUSG00000020611_ENSMUST00000020930|mouse|control|control (ssRNA)
RNA: GGGAGUUCUACAGUCCGACGAUCAAAUUCUAGGAAAUAGUCUUUGAUGCUAACAACUUGCACUUUCUCCUCGAGCAAGUCUGUCUUGUUUAAGAAGAGGAUUAUGGAGACGUUGCUGAAAACCCGAUUGUUGACAAUUGUUUCCAACAGAGGAUUGAGCAUCA
B10: chr6:31368937:31368938:+_ENSMUSG00000025609_ENSMUST00000026699|mus_hu|motif|central (ssRNA)
RNA: GGGAGUUCUACAGUCCGACGAUCGGGAGGAUAGUUGCUCUCUGAAGACCAUCUUGAAGAUUGGUCAUUUGGUUUGUCCACGGAAAUGUUCUCGGGAAGGUAGGUGGAGGAAAAGGAGCUCCACUUGUGUAGCGCGUAGGGGAGCAACAGAGGAUUGAGCAUCA
B11: chr1:165697146:165697147:-_ENSG00000143183_ENST00000464650|hu_hu|motif|central (ssRNA)
RNA: GGGAGUUCUACAGUCCGACGAUCUUGCUGGCUGCCAUUUUCACUCUAAUCAUACCCAAAAGGCUUAGAAAUAAUUCAAAACGGGAAAGAGGCCCAAGUAGUAAGGCUACCUAUGGCUCUUGCUACAAAACAGUUGCCAGUCUGCAACAGAGGAUUGAGCAUCA
B12: chr13:113657673:113657674:+_ENSMUSG00000021759_ENSMUST00000016144|mus_mus|FALSE|FALSE (ssRNA)
RNA: GGGAGUUCUACAGUCCGACGAUCAUGGAGAGUCGUGUGUGGAUCCUCUUCCUUUCUCUCUUUGUAAGAAUGUGUGUCCUUGAAGAAAUCGGAUACAUACAAAGCAACCAGUAUAGCCAUAGCAGCUCCCUGAAUGAGUCCAACCAACAGAGGAUUGAGCAUCA
B13: 111629782_111630603_1761_CDS_ENSG00000108039_ENST00000369680|human|control|control (ssRNA)
RNA: GGGAGUUCUACAGUCCGACGAUCGGGCUCAUCAGUGACAAUCAUGCCUGCCUCCAAGGGCUCAUCAGAGAAUGUUUUGUAACUGAUGCCGCAAGGACCCUCAUGGACAUUCAAAAAAGACCCAACACCAUGUCCAGUCCCGUGCAACAGAGGAUUGAGCAUCA
B14: chr14:21833301:21833302:-_ENSG00000092201_ENST00000216297|hu_hu|FALSE|FALSE (ssRNA)
RNA: GGGAGUUCUACAGUCCGACGAUCAUUGAUGCUGAAAACCAUUCCUUUCUUCAGUUUGUAUUGAUUUUUGCUAUUGAUUACUAGGGAGCCUUCACGGAAUUCAAUUCCCAUCCCAAACCCUAGGUUUUUGGUAAUUUUGUUCAGCAACAGAGGAUUGAGCAUCA

The assay concerns the target T1, UNK ZnF1-3 (human, UniProt Q9C0B0 31-174).
T1 sequence: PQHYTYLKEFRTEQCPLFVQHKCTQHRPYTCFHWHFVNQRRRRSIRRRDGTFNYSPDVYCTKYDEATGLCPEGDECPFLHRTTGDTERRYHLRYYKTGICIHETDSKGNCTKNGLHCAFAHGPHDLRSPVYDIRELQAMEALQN
Nature of the assay: nsRBNS (natural sequence RNA bind-n-seq); RBNS binding buffer (assumed for nsRBNS): 25 mM Tris pH 7.5, 150 mM KCl, 3 mM MgCl2, 0.01% Triton X-100, 500 ug/ml BSA, 20 U/ml SUPERase-In, 4 C; UNK is unkempt and MSI1 is Musashi-1; names of the RNAs are library labels; protein concentration not given here; high values mean tight binding.
The molecule B1 yielded a binding signal of 1.1 enrichment R.

Turning to B2, the binding signal amounted to 1.21 enrichment R.

Molecule B3 returned a binding signal of 1.38 enrichment R.

Consider B4, for which the binding signal was found to be 1.15 enrichment R.

For B5, the binding signal was found to be 2.28 enrichment R.

On to B6, for which the binding signal worked out at 2.06 enrichment R.

Consider B7, for which the binding signal was 0.85 enrichment R.

For the molecule B8, the binding signal was determined as 1.26 enrichment R.

In turn, B9 gave a binding signal of 0.868 enrichment R.

With B10, the binding signal turned out to be 2.04 enrichment R.

In the case of B11, the binding signal is 1.37 enrichment R.

B12: the binding signal came out at 1.34 enrichment R.

B13: the binding signal is 1.21 enrichment R.

Molecule B14 yielded a binding signal of 0.634 enrichment R.
